# Test results: paper PMC6919601, “Identification of Plasmodium dipeptidyl aminopeptidase allosteric inhibitors by high throughput screening” (PLoS ONE, 2019)
# Several values for one entry are separate records, joined by “and”; a condition that tells them apart may be missing. Identical values can stand only once. The campaign covered roughly 110,000 compounds. About 230 (0.21%) showed an effect of 50% or more. Some of the results follow.
# Molecular target: DPAP1 (Plasmodium falciparum, UniProt Q8IIJ9)
# Assay: primary screen, percent inhibition; read by cleavage of a fluorogenic dipeptide substrate; higher = more effect of the substance
# Set-up: species or system P. falciparum D10 trophozoite lysates; single well
# 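Also: 30 min substrate incubation versus DMSO and 10 µM JCP410 controls.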
# Chain of DPAP1 (Q8IIJ9 whole entry, looked up): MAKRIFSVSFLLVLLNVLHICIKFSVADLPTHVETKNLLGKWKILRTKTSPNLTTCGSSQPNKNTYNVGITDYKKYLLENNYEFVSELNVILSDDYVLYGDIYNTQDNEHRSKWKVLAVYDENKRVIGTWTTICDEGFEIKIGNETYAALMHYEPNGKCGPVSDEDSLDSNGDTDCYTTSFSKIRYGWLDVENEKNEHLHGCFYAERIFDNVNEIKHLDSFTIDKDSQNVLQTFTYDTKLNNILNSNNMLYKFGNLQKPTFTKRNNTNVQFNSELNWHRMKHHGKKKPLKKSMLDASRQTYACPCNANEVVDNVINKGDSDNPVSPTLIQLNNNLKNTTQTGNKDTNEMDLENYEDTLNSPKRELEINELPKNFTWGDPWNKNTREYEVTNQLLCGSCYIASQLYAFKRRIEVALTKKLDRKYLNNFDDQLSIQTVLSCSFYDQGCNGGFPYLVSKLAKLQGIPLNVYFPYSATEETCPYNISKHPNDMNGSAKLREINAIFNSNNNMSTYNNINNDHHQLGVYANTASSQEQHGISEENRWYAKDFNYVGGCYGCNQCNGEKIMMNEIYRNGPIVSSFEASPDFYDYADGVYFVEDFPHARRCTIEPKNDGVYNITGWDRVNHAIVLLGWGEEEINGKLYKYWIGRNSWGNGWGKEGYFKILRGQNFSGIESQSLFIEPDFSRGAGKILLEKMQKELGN
row,SMILES,% Inhibition @ 10 uM
1,CC1CCCN(Cc2c(C(=O)O)[nH]c(=O)[nH]c2=O)C1 (stereo not shown),1.32%
2,C=C(C)[C@@H]1CC=C(CNc2ccc(OC)c(OC)c2)CC1,-4.14%
3,O=C(Cn1ncn2c(cc3sccc32)c1=O)NC1CCCCCC1,7.91%
4,C#CC(C)(CC)NC(=O)c1cnn2c(C(F)(F)F)cc(-c3cccs3)nc12 (stereo not shown),-0.834%
5,Cc1nn(C)c(C)c1C(=O)NS(=O)(=O)c1ccccc1Cl,-3.58%
6,CC(C)COC(=O)NCC12C=CC(O1)C1C(=O)N(Cc3ccccc3)C(=O)C12 (stereo not shown),-5.47%
7,O=C(O)CCC(=O)Nc1cccc(NC(=O)c2ccc(Br)cc2)c1,8.27%
8,Oc1ccc2c(Cl)cc(Cl)c(O)c2n1,1.13%
9,O=C(CCCN1C(=O)CSc2ncccc21)NC1CCCCCC1,-2.37%
10,Cn1c2c(c(=O)n(C)c1=O)C(Nc1nc3ccccc3s1)(C(F)(F)F)C(=O)N2 (stereo not shown),-1.52%
11,CCOC(=O)c1sc2ncn3c(-c4cccc(OC)c4)nnc3c2c1C,2.25%
12,CC(C)(C)NC(=O)COc1ccccc1C(=O)Nc1cccc(Cl)c1Cl,-1.61%
13,O=C1CC(NCc2ccco2)C(=O)N1CCc1ccccc1 (stereo not shown),-3.12%
14,CC(C)(C)c1ccc(C(=O)CS(=O)(=O)c2ccccc2)cc1,1.86%
15,CCOC(=O)N1CCN(C(=O)CS(=O)Cc2nc(-c3ccc(Cl)cc3)oc2C)CC1 (stereo not shown),-1.05%
16,CCOc1cc2c(cc1OCC)C(c1c(F)cccc1F)NCC2 (stereo not shown),6.63%
17,CCOc1ccc(NC(=O)c2c(OC)cccc2OC)cc1,-2.32%
18,OC1CCCN(Cc2ccc(Br)s2)C1 (stereo not shown),-1.07%
19,COc1ccc(OC)c2c(C)cc(N3CCCC3)nc12,-11.5%
20,Nc1nc2ccc(-c3nc4ccccc4[nH]3)cc2s1,3.79%
21,CNC(=O)/C(C#N)=C/c1c(Oc2ccc(C(C)(C)C)cc2)nc2ccccn2c1=O,-4%
22,Cc1ccc2nc(Cl)c3cc(C(=O)NCCCN4CCOCC4)sc3c2c1,3.2%

row,SMILES,% Inhibition @ 10 uM
1,Cc1ccc(C2c3c(oc4cc(C)c(C)cc4c3=O)C(=O)N2CCCN2CCOCC2)cc1 (stereo not shown),-2.91%
2,O=C(NC1CCCC1)c1cc(-c2ccc(O)cc2)on1,-1.96%
3,CC1CCc2ccccc2N1C(=O)c1cccs1 (stereo not shown),8.71%
4,Clc1ccc(N2CCN(C3CCN(Cc4ccccc4)CC3)CC2)cc1,1.88%
5,O=c1/c(=C/c2cccc([N+](=O)[O-])c2)sc2nc3ccccc3n12,4.42%
6,CCOc1cccc2c1OC(c1cccc(F)c1)N1N=C(c3ccco3)CC21 (stereo not shown),1.88%
7,O=C(CCc1ccccc1)Nc1nc(-c2ccc(F)cc2)cs1,3.53%
8,COc1cc(C(=O)Nc2cc(-c3nc4ncccc4o3)ccc2C)cc(OC)c1OC,5.04%
9,Cc1ccc(OCCCCCCN2CCOCC2)cc1C,-4.01%
10,CCOc1ccc(NC(=O)C(C)NS(=O)(=O)c2cc(C)ccc2C)cc1 (stereo not shown),-2.09%
11,COC(=O)c1cc(/C=C/c2ccccc2)c2c(=O)n(C)c(=O)n(C)c2n1,4.11%
12,Cc1cc(C)c(S(=O)(=O)N2CCc3ccccc32)c(C)c1,-1.62%
13,CC(C)CCNC(=O)c1nc(-c2cccc(F)c2)n2c1CCCCC2,0.0603%
14,COc1cccc(N(CC(=O)Nc2ccccc2F)S(=O)(=O)c2ccc(C)cc2)c1,0.851% and 1.92%
15,Cc1sc2ncn(CC(=O)NCc3ccccn3)c(=O)c2c1C,-3.23%
16,CCCOc1ccc(NC(=O)c2ccco2)cc1,-1.76%
17,CCOC(=O)C1=C(CSc2nc(CC)c(C)cc2C#N)OC(N)=C(C#N)C1c1ccccc1OC (stereo not shown),-1.68%
18,Cc1c(CNCc2ccccc2)c(C(=O)O)c(C)n1Cc1ccc(F)cc1Cl,-0.23%
19,COc1ccc(OC)c(CNC(=O)c2cn(CC(C)C)c(=O)c3c2c2ccccc2n3C)c1,-1.84%
20,O=C(c1cccs1)N(Cc1nc(-c2ccc(Cl)cc2)no1)C1CCCCC1,-4.82%
21,Cc1ccc2c(cnn2C(=O)CCC(=O)O)c1,-9.2%
22,CC1=C(C(=O)OCC(C)C)C(c2ccccc2C(F)(F)F)CC(=O)N1 (stereo not shown),3.11%

row,SMILES,% Inhibition @ 10 uM
1,Cc1nn(CCCC(=O)N(C)Cc2ccccc2)c(=O)c2c1sc1ccccc12,-5.61%
2,O=C1NC(=O)C(=Cc2ccc(N3CCOCC3)cc2)C(=O)N1,-0.0648%
3,Cc1ccccc1Cn1cnc2c(nnn2-c2ccc(F)cc2)c1=O,-2.16%
4,CC(C)C[C@H](NC(=O)c1ccc(-n2ccnc2)cc1)C(=O)NCC#N,-0.778%
5,CCCc1nc(N)c(C#N)c(-c2cccc(Br)c2)c1CC,-6.08%
6,Cc1ccc(OCCCN2CCCC2)cc1C,-0.351%
7,O=C(NCCc1ccc(Cl)cc1)C1CCCN(S(=O)(=O)N2CCOCC2)C1 (stereo not shown),2.54%
8,COc1ccc(C2/C(=C(\O)OC3CCCCC3)C(C)=Nc3ncnn32)cc1Br (stereo not shown),-3.13%
9,Cc1nn(-c2ccccc2)c(-n2cccc2)c1C(=O)N1CCCCCC1,1.8%
10,Cc1ccc(-n2nc(C)c(/C=N/c3ccc(C(=O)O)c(O)c3)c2O)cc1,1.37%
11,CNS(=O)(=O)c1cn(CC(=O)Nc2nc3ccc(Cl)cc3s2)cc1S(=O)(=O)NC,7.85%
12,CCOc1ccc(-c2c(C)nn3c(C)c(C(=O)NC(C)CCc4ccccc4)cnc23)cc1OCC (stereo not shown),-0.477%
13,O=C(CN(C1CCCCC1)S(=O)(=O)c1ccc(Br)cc1)N1CCCCCC1,-7.28%
14,COc1ccc(C2CC(=O)N=C(NC(=O)c3ccc(Cl)cc3)N2)cc1 (stereo not shown),-9.43%
15,NC(=O)c1cc(S(=O)(=O)NCc2ccc3c(c2)OCO3)cs1,3.28%
16,O=C(CSc1nc2ccccc2[nH]1)Nc1ncccn1,6.51%
17,C=CCN1C(=O)c2ccccc2C1(O)c1ccc(Cl)cc1 (stereo not shown),-0.636%
18,CCOC(=O)C1CCN(Cc2ccsc2)CC1,-4.35%
19,Fc1cccc(F)c1CN1CCN(c2ccc(Cl)cc2)CC1,-3.15%
20,O=C(O)c1nsc2ccccc12,-3.78%
